Results reported in patent publication EP4736885A1, “ANTIBODY-DRUG CONJUGATE AND USE THEREOF” (priority 2023, dated 2025).
“And” between values parts separate entries of the source, which are not always exact repeats. Equal values may be shown once.

How the values were obtained:
[1] = Hydrophobicity of antibody-drug conjugates by hydrophobic interaction chromatography; format: physicochemical; details: TSKgel Butyl-NPR column, shorter time = more hydrophilic
Method: Hydrophobic interaction chromatography was used to compare the hydrophobicity of 43A-042, 43B-042, 43A-043, 43B-043, and 43A-DXd. Detection was performed on an e2695 high performance liquid chromatograph using a TSKgel Butyl-NPR chromatographic column (4.6 mm × 10 cm, Cat. No. 0042168/TOSOH). Mobile phase A was 1.0 M ammonium sulfate in 25 mM phosphate buffer, and mobile phase B was 25% isopropanol in 75% 25 mM phosphate buffer. The flow rate was 0.8 mL/min; the detection wavelength was 280 nm; the column temperature was 30 °C; the mobile phase gradient was as follows: 100%-0% A for 0-20 min, 0%-0% A for 20-23 min, 0%-100% A for 23-24 min, 100%-100% A for 24-28 min.

[2] = tested on: human melanoma A375 cells; experiment: In vitro growth inhibition (resazurin), Example 25; format: cell-based; details: A375, 168±8 h (Tables 5 and 6)
Method: The target cells were collected and resuspended to form a single-cell suspension, and the cell viability and cell count were determined by trypan blue staining. The cell density was adjusted to 1 × 10^5 cells/mL. The cell suspension was added to a 96-well black flat-bottom cell culture plate at 100 µL/well. 43A-DXd was used as a reference standard. The diluted test samples were added to the 96-well black flat-bottom cell culture plate (pre-seeded with cells) at 20 µL/well. […] A resazurin sodium solution (0.03%) was added at 20 µL/well. The plate was then incubated at 37 °C for 3-4 h. Fluorescence values were measured using a microplate reader at 550 nm/610 nm. Plotting was performed using Prism or similar plotting software, and then the half-maximal inhibitory concentration IC50 values of the reference standard and the test samples were calculated by fitting.

[3] = tested on: human lung cancer Calu-6 cell xenograft tumors; experiment: Anti-tumor experiment, Calu-6 xenograft, Example 26; format: in vivo, NOD/SCID mice; details: 3.0 mg/kg, intravenous, single dose, day 25
Method: In this experiment, age-appropriate female NOD/SCID mice were selected to be inoculated with human lung cancer Calu-6 cells. When the tumor volume reached about 100-200 mm^3, 48 animals with good tumor growth were selected and evenly divided into 6 groups based on the tumor volume. Table 7. Animal grouping and dosing regimen
After grouping was completed, administration was performed, and the body weight of the mice was measured. The data were recorded. By measuring the tumor diameters at different time points after administration, the tumor growth was dynamically observed. The tumor volume was calculated using the following formula: Tumor volume (mm^3) = 1/2 × long diameter (mm) × ([shortdiameter(mm)])^2 [formula]
On day 25 after administration, the mice were euthanized by carbon dioxide asphyxiation, and then the tumors were excised and weighed.

human B7H3 protein = molecular target: T1, human B7H3 protein (Homo sapiens, UniProt Q5ZPR3); experiment: Antigen-binding activity (ELISA); details: His-tagged human B7H3 protein coated at 1 µg/mL
T1 construct: His; purchased Beijing ACROBiosystems Co., Ltd
T1 sequence (Q5ZPR3 29-534): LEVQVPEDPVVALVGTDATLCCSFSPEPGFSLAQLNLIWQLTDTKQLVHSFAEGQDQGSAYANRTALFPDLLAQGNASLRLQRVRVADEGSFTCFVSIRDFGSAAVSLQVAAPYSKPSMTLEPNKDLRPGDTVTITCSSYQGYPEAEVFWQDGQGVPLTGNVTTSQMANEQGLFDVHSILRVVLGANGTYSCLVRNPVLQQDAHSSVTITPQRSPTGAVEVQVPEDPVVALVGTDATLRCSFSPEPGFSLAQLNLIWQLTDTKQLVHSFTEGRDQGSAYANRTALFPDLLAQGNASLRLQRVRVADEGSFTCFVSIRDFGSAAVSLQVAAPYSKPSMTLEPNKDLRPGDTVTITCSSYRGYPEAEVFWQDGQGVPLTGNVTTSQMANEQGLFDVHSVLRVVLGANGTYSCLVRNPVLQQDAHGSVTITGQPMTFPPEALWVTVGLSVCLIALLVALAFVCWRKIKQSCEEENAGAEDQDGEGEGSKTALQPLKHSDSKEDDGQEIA
Method: The His-tagged human B7H3 protein (purchased from Beijing ACROBiosystems Co., Ltd.) was diluted to 1 µg/mL with a coating solution and added to a microplate at 100 µL/well. The microplate was incubated at 4 °C overnight. Then, a blocking solution was added at 100 µL/well to the microplate containing the coating solution. The plate was shaken at room temperature for 2 h and then washed 3 times with a washing buffer. Samples and reference standards were subjected to gradient dilution and then added at 100 µL/well. The plate was shaken at room temperature for 2 h and washed 4 times with the washing buffer. An enzyme-labeled antibody was added. Goat anti-human IgG-HRP was diluted with the sample diluent and then added at 100 µL/well. The plate was shaken at room temperature for 1 h and washed 4 times with the washing buffer. A substrate solution (freshly prepared TMB substrate solution) was added at 100 µL/reaction well for color development. The reaction proceeded at room temperature for 5-10 min. Then, a terminating solution was added at 100 µL/well, and the mixture was gently and well mixed to stop the reaction. The absorbance was measured using a microplate reader at wavelengths of 450 nm/650 nm. Plotting was then performed using four-parameter fitting in software, where the C value in the model represents the half-maximal effective concentration EC50. Using the 43A and 43B antibodies as reference standards, the binding activities of the corresponding antibody-drug conjugates were determined. […] Table 3. Summary of binding activity to human B7H3 protein

Molecule | retention time [1] [min] | IC50 [2] | Tumor growth inhibition rate (%) [3] [%] | Tumor volume on D25 (mm^3) [3] [mm^3] | Tumor weight [3] [g] | Tumor weight inhibition rate (%) [3] [%] | EC50 (human B7H3 protein) [ng/mL]
43A-043 (conjugate) heavy: QVQLVQSGAEVKKPGASVKVSCKASGYTFTDYFMNWVRQAPGQGLEWMGDVNPKTGSPSYNQKFKGRVTMTRDTSTSTVYMELSSLRSEDTAVYYCARRYGFLYSMDYWGQGTSVTVSSASTKGPSVFPLAPSSKSTSGGTAALGCLVKDYFPEPVTVSWNSGALTSGVHTFPAVLQSSGLYSLSSVVTVPSSSLGTQTYICNVNHKPSNTKVDKRVEPKSCDKTHTCPPCPAPEAAGGPSVFLFPPKPKDTLMISRTPEVTCVVVDVSHEDPEVKFNWYVDGVEVHNAKTKPREEQYNSTYRVVSVLTVLHQDWLNGKEYKCKVSNKALAASIEKTISKAKGQPREPQVYTLPPSREEMTKNQVSLTCLVKGFYPSDIAVEWESNGQPENNYKTTPPVLDSDGSFFLYSKLTVDKSRWQQGNVFSCSVMHEALHNHYTQKSLSLSPGK light: DIQMTQSPSSLSASVGDRVTITCRASQDISNYLNWYQQKPGKAVKVLIYYTSRLHSGVPSRFSGSGSGTDFTFTISSLQPEDIATYYCQQGNTHPFTFGGGTKVEIKRTVAAPSVFIFPPSDEQLKSGTASVVCLLNNFYPREAKVQWKVDNALQSGNSQESVTEQDSKDSTYSLSSTLTLSKADYEKHKVYACEVTHQGLSSPVTKSFNRGEC | 7.130 | 22.69 ng/mL | 85.2 | 619.6±229.3 | 0.498 ± 0.189 | 63.6 | 1.09
43A-DXd (conjugate) heavy: QVQLVQSGAEVKKPGASVKVSCKASGYTFTDYFMNWVRQAPGQGLEWMGDVNPKTGSPSYNQKFKGRVTMTRDTSTSTVYMELSSLRSEDTAVYYCARRYGFLYSMDYWGQGTSVTVSSASTKGPSVFPLAPSSKSTSGGTAALGCLVKDYFPEPVTVSWNSGALTSGVHTFPAVLQSSGLYSLSSVVTVPSSSLGTQTYICNVNHKPSNTKVDKRVEPKSCDKTHTCPPCPAPEAAGGPSVFLFPPKPKDTLMISRTPEVTCVVVDVSHEDPEVKFNWYVDGVEVHNAKTKPREEQYNSTYRVVSVLTVLHQDWLNGKEYKCKVSNKALAASIEKTISKAKGQPREPQVYTLPPSREEMTKNQVSLTCLVKGFYPSDIAVEWESNGQPENNYKTTPPVLDSDGSFFLYSKLTVDKSRWQQGNVFSCSVMHEALHNHYTQKSLSLSPGK light: DIQMTQSPSSLSASVGDRVTITCRASQDISNYLNWYQQKPGKAVKVLIYYTSRLHSGVPSRFSGSGSGTDFTFTISSLQPEDIATYYCQQGNTHPFTFGGGTKVEIKRTVAAPSVFIFPPSDEQLKSGTASVVCLLNNFYPREAKVQWKVDNALQSGNSQESVTEQDSKDSTYSLSSTLTLSKADYEKHKVYACEVTHQGLSSPVTKSFNRGEC | 8.809 | 24.19 ng/mL and 24.29 ng/mL | 63.3 | 725.4±208.4 | 0.583 ± 0.153 | 57.4 | 1.19
43A-042 (conjugate) heavy: QVQLVQSGAEVKKPGASVKVSCKASGYTFTDYFMNWVRQAPGQGLEWMGDVNPKTGSPSYNQKFKGRVTMTRDTSTSTVYMELSSLRSEDTAVYYCARRYGFLYSMDYWGQGTSVTVSSASTKGPSVFPLAPSSKSTSGGTAALGCLVKDYFPEPVTVSWNSGALTSGVHTFPAVLQSSGLYSLSSVVTVPSSSLGTQTYICNVNHKPSNTKVDKRVEPKSCDKTHTCPPCPAPEAAGGPSVFLFPPKPKDTLMISRTPEVTCVVVDVSHEDPEVKFNWYVDGVEVHNAKTKPREEQYNSTYRVVSVLTVLHQDWLNGKEYKCKVSNKALAASIEKTISKAKGQPREPQVYTLPPSREEMTKNQVSLTCLVKGFYPSDIAVEWESNGQPENNYKTTPPVLDSDGSFFLYSKLTVDKSRWQQGNVFSCSVMHEALHNHYTQKSLSLSPGK light: DIQMTQSPSSLSASVGDRVTITCRASQDISNYLNWYQQKPGKAVKVLIYYTSRLHSGVPSRFSGSGSGTDFTFTISSLQPEDIATYYCQQGNTHPFTFGGGTKVEIKRTVAAPSVFIFPPSDEQLKSGTASVVCLLNNFYPREAKVQWKVDNALQSGNSQESVTEQDSKDSTYSLSSTLTLSKADYEKHKVYACEVTHQGLSSPVTKSFNRGEC | 9.189 | 9.41 ng/mL | 78.9 | 475.8±194.2 | 0.389 ± 0.167 | 71.6 | 1.17
43B-043 (conjugate) heavy: QVQLVQSGAEVKKPGASVKVSCKASGYTFTDYFMNWVRQAPGQGLEWMGDVNPKTGSPSYNQKFKGRVTMTRDTSTSTVYMELSSLRSEDTAVYYCARRYGFLYSMDYWGQGTSVTVSSASTKGPSVFPLAPSSKSTSGGTAALGCLVKDYFPEPVTVSWNSGALTSGVHTFPAVLQSSGLYSLSSVVTVPSSSLGTQTYICNVNHKPSNTKVDKRVEPKSCDKTHTSPPCPAPEAAGGPSVFLFPPKPKDTLMISRTPEVTCVVVDVSHEDPEVKFNWYVDGVEVHNAKTKPREEQYNSTYRVVSVLTVLHQDWLNGKEYKCKVSNKALAASIEKTISKAKGQPREPQVYTLPPSREEMTKNQVSLTCLVKGFYPSDIAVEWESNGQPENNYKTTPPVLDSDGSFFLYSKLTVDKSRWQQGNVFSCSVMHEALHNHYTQKSLSLSPGK light: DIQMTQSPSSLSASVGDRVTITCRASQDISNYLNWYQQKPGKAVKVLIYYTSRLHSGVPSRFSGSGSGTDFTFTISSLQPEDIATYYCQQGNTHPFTFGGGTKVEIKRTVAAPSVFIFPPSDEQLKSGTASVVCLLNNFYPREAKVQWKVDNALQSGNSQESVTEQDSKDSTYSLSSTLTLSKADYEKHKVYACEVTHQGLSSPVTKSFNRGEC | 6.426 | 36.78 ng/mL | 69.9 | 376.1±119.3 | 0.275 ± 0.079 | 79.9 | 1.05
